This is one part of the list. At the low end of the ranking, values are background and their order means little.

The target in the assay is SIX1-Q177R homeodomain (UniProt Q15475). Put plainly: universal protein binding microarray. The conditions noted are these: Universal all-10-mer PBM (8x60K, AMADID 030236), 300 nM GST-tagged protein, Alexa Fluor 488 anti-GST; buffer, salt, pH and temperature not stated; high values mean tight binding; most listed sequences are background and not binding sites; double strand, one strand shown.
Regarding GAGAAACC, the binding signal worked out at 0.0917 E-score. For GCCTCCAC the value was -0.204 E-score.

As to AGCTGTCC, the binding signal is -0.282 E-score. In the case of ATCCCACA, the binding signal turned out to be 0.192 E-score.

Consider CACGGTAG, for which the binding signal worked out at 0.131 E-score. As for ACAGAGGG, the binding signal came out at 0.0759 E-score. For AGCACAAT, the binding signal was -0.0438 E-score. As for ACGGTCCT, the binding signal is -0.129 E-score. Consider ATGAGTCA, for which the binding signal was -0.096 E-score. As to AGTTTGAT, the binding signal is -0.138 E-score. Turning to TACTTACA, the binding signal is 0.102 E-score. Consider AGGACGCG, for which the binding signal came to 0.082 E-score.

Regarding GCTGCGGA, the binding signal is -0.0776 E-score. Consider CAACCTAC, for which the binding signal amounted to 0.0683 E-score. The same measure for CCACGGTA: -0.12 E-score; for TCGGTAAA: 0.111 E-score. CAGTGTCC: the binding signal came out at 0.374 E-score. Take ATAGGTTG: the binding signal was -0.104 E-score. With GTCGCCCA, the binding signal is -0.193 E-score. Consider ACTCGGCG, for which the binding signal was 0.118 E-score.

For the sequence GAACCCCC, the binding signal came out at 0.244 E-score. AGCGACCG: the binding signal was -0.259 E-score. Consider AGGGACTG, for which the binding signal is -0.173 E-score. For the sequence GATGGCCA, the binding signal is -0.146 E-score. With TCGGACGA, the binding signal was -0.214 E-score.

As for CAGACCCG, the binding signal is -0.0489 E-score. As for GCCTGGTA, the binding signal is -0.00962 E-score. As for TATTCGGA, the binding signal is -0.0564 E-score. For CAGCTGAC the value was -0.0343 E-score. For AGAACGCG the value was -0.0255 E-score; for CACAGTGA, -0.0812 E-score. In the case of GCCGGCGC, the binding signal is -0.117 E-score. For TCTGAAAA the value was -0.09 E-score; for GCAAGATA, -0.123 E-score; for ACCGTTAC, 0.0536 E-score. For AGGGCGCA, the binding signal was -0.151 E-score.

For the sequence TACCCGCA, the binding signal amounted to 0.142 E-score. As to GGGCCCCC, the binding signal is -0.0863 E-score. With CTCGGTCA, the binding signal stood at 0.0784 E-score. For the sequence ACTTGGTG, the binding signal turned out to be 0.288 E-score.

On to AGATCTAC, for which the binding signal was -0.22 E-score. Turning to AATGGTGT, the binding signal was found to be 0.475 E-score. The same measure for ATGGCGGA: -0.183 E-score; for AAACGTCC: -0.193 E-score. In the case of ATCGCTAG, the binding signal is -0.175 E-score.

For ATCTCACC, the binding signal is 0.155 E-score. In the case of AATCACTA, the binding signal is -0.144 E-score. The same measure for CCAAGCGC: -0.0916 E-score. AACAGTAG: the binding signal was -0.221 E-score. As to ATTAACTC, the binding signal was determined as 0.0753 E-score.

As for CCGACCGC, the binding signal is -0.183 E-score. GTACTACA: the binding signal came to 0.277 E-score.

On to CATCCAAA, for which the binding signal is -0.0554 E-score.

As to AGGCCTTG, the binding signal was -0.0716 E-score. Take GGAATCGA: the binding signal came to 0.0353 E-score. As to ATTTGAAA, the binding signal was -0.161 E-score. Consider AGCCAAGC, for which the binding signal was -0.262 E-score. As for CCCAGGCG, the binding signal was determined as 0.167 E-score. The same measure for GAATCCAA: -0.159 E-score. With CTTTTTCC, the binding signal is -0.329 E-score. For CTACCCCA the value was 0.149 E-score. For AAACATTA the value was -0.283 E-score; for TAGTGGGA, 0.124 E-score.

On to CAGCGTCG, for which the binding signal was -0.16 E-score. The same measure for CTGGAGAA: -0.361 E-score.

Turning to AGGTAGTA, the binding signal was -0.00156 E-score. For CCGGGTAC the value was 0.294 E-score. Turning to CACGGGCC, the binding signal was 0.161 E-score. In the case of AGTCTTCA, the binding signal was -0.33 E-score. In the case of CATATCAA, the binding signal is -0.152 E-score. As to CGGGAAAA, the binding signal was -0.168 E-score. For GACGGGCC the value was -0.0695 E-score. Take ACTAGGGC: the binding signal was -0.0858 E-score. As to GCTATTTA, the binding signal is 0.0343 E-score. Regarding TCCAGGAA, the binding signal is 0.0222 E-score. Regarding GGCTTAGA, the binding signal is -0.227 E-score. The same measure for GTGAGACA: 0.0874 E-score; for CTGACGCA: -0.144 E-score. Turning to GTACAGAC, the binding signal is -0.154 E-score. On to GCTTGTAC, for which the binding signal turned out to be 0.127 E-score. The same measure for AACGAGGC: -0.158 E-score.

As to ACGCAGCC, the binding signal came to 0.129 E-score. As for GATACGCA, the binding signal was -0.0275 E-score. As for CGTGGTCC, the binding signal was found to be 0.0881 E-score.

AATTTCAC: the binding signal is -0.254 E-score. For AAGCAGCC the value was -0.242 E-score.

Take AAACTCGT: the binding signal is -0.253 E-score.

For the sequence GGATACCA, the binding signal was found to be 0.327 E-score. For AATCACAG the value was -0.092 E-score.

For GGATGGAA, the binding signal is -0.204 E-score. Regarding ATGCGAGG, the binding signal is -0.154 E-score. The same measure for GAGGCATC: -0.29 E-score. For ATCGTGGA the value was -0.17 E-score; for CAGTAGCG, -0.000655 E-score. With ATCGGCTG, the binding signal is -0.117 E-score. Take CAGCCCGA: the binding signal was -0.087 E-score.

For ATAGGGAT, the binding signal came out at 0.0997 E-score. Turning to GCGACTTA, the binding signal is -0.0825 E-score. For CAAGCGCG, the binding signal is -0.143 E-score. With TTAGTGAA, the binding signal is 0.0486 E-score.

Regarding CGGTACTC, the binding signal was found to be 0.0324 E-score. Turning to CACATGGG, the binding signal came out at 0.0542 E-score. For AGGTCTTG the value was -0.334 E-score; for GCCCTACA, 0.0464 E-score; for ATTTCACG, -0.0615 E-score. For CTGTGGGA the value was 0.144 E-score; for CTGCCAGA, -0.163 E-score.

Turning to TGATGGCA, the binding signal was -0.157 E-score. The same measure for AGACGTGC: -0.15 E-score; for GCTCTTTA: -0.254 E-score; for ACGACAAC: 0.0123 E-score. Consider ACGGGATC, for which the binding signal is 0.197 E-score. As to ATGCCCCA, the binding signal is -0.16 E-score. With CTGTAGGC, the binding signal is -0.31 E-score.

Take ATGGGAGA: the binding signal is -0.131 E-score. As for AGTCGAAC, the binding signal was -0.094 E-score. On to GAGGGAAC, for which the binding signal is -0.115 E-score. For the sequence AGACTGTA, the binding signal is -0.22 E-score. In the case of CTTAAGTC, the binding signal was -0.282 E-score.

Turning to CTGATGGC, the binding signal was -0.118 E-score.

As for CTGGCGGC, the binding signal was -0.0914 E-score. The same measure for AAGAACTT: -0.312 E-score; for ATTGATGA: -0.266 E-score; for ATGGCCCG: -0.123 E-score.

On to CCCTTGAA, for which the binding signal is -0.0745 E-score. As to AGCGTCTG, the binding signal is -0.139 E-score. With CTACACAC, the binding signal worked out at 0.297 E-score. As for CCTCGACC, the binding signal turned out to be 0.0207 E-score.

Take TAAGTCGA: the binding signal was -0.0334 E-score. As for AGTTTTAT, the binding signal is -0.197 E-score. Regarding GTCACAGA, the binding signal is -0.0317 E-score. As for ATCGGCCG, the binding signal was -0.145 E-score. With AATTGGGA, the binding signal is -0.134 E-score. The same measure for ACAAAAGA: -0.141 E-score; for CGATCTGA: -0.182 E-score; for GGGAACAA: 0.0131 E-score. For CGTTCACA the value was -0.0349 E-score; for GAGCAGCA, -0.217 E-score; for CGGCCGTA, -0.0496 E-score. As to ACAGAGTG, the binding signal turned out to be 0.184 E-score. Regarding GACACACC, the binding signal was determined as 0.422 E-score.

As for AGCAGAAG, the binding signal was -0.186 E-score. For TGCCAGCA, the binding signal was -0.00722 E-score. The same measure for AGCCATGC: -0.321 E-score; for GCTTTACC: 0.0775 E-score; for ATTCCCGA: -0.128 E-score.

Take GGGCCCGA: the binding signal was -0.0924 E-score.

On to ATAAATTA, for which the binding signal was -0.189 E-score. On to GACGCCTC, for which the binding signal turned out to be 0.104 E-score.

Turning to CGGGCTTC, the binding signal came out at 0.0774 E-score.

In the case of CGGGGAAC, the binding signal worked out at 0.103 E-score. As for CCAGATAA, the binding signal worked out at 0.072 E-score.

On to ACTATCAT, for which the binding signal is -0.0747 E-score.

For AGCATCAG, the binding signal is -0.0214 E-score. Turning to TATAAGAA, the binding signal is -0.227 E-score. Regarding TACTCGCA, the binding signal was 0.128 E-score. As for AGCATCAA, the binding signal is -0.223 E-score. For AGCTTAGC, the binding signal is -0.22 E-score. For CAGCTCGC the value was -0.22 E-score; for CATCATGG, -0.0147 E-score; for TCAAAGAA, -0.056 E-score. For GGTCTTAC the value was 0.062 E-score. With AAACACGA, the binding signal was 0.324 E-score. For CGACTGTA the value was 0.019 E-score; for CCAGATTC, -0.132 E-score. As for CAACGTCG, the binding signal is -0.0989 E-score.

For CAGATTTA, the binding signal is -0.111 E-score. For AGTTGTCG the value was -0.0454 E-score. As to ACACTCGG, the binding signal came out at 0.408 E-score. For ATAAGACG, the binding signal was -0.132 E-score. For CGCGACAG, the binding signal was -0.115 E-score. The same measure for GACCGTGA: -0.158 E-score.

The values above are taken from article PMC10668032.
